Data taken from PubChem BioAssay AID652104 (National Center for Advancing Translational Sciences (NCATS), 2013).
Where “and” joins values, the source holds several entries; their conditions need not be identical. Equal entries are not always repeated. Hit rate of the full screen: of about 410,000 compounds, about 7,200 (1.8%) were called active. The shares of active, inactive and inconclusive entries below differ from those in the screen. Calls come from the whole dose curve; as a rule, active = well fitted activation curve with a large enough effect; inconclusive = small, poorly fitted or top-dose-only effect, or another doubt; inactive = no such curve, though single readings can be large or run the other way. A potency beside an inconclusive call is a rough fit, not a confirmed value.

Assay: qHTS of TDP-43 Inhibitors; note: nearly all actives have a fitted effect of over 50% in size; for growth rescue (activation): % of control where 0% means no effect
Conditions: TDP-43 expressing yeast growth rescue, BacTiter-Glo, 24 h; growth rescue (activation): at 46.1 µM (top of the series) unless noted
Method in brief: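 Yeast expressing TDP-43 (pregrown in raffinose, seeded at OD600=0.02 in galactose medium) exposed to compounds 24 hr at 30 deg C. Growth read by BacTiter-Glo luminescence; rescue of toxicity appears as increased signal.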
Potency is the fitted concentration of half-maximal effect; tags give direction and shape of the fitted curve.

Potency, inconclusive:
O=c1c2ccccc2cnn1Cc1ccc(Br)cc1F 10 µM [activator, partial curve]
O=C(COc1nsnc1N1CCOCC1)Nc1ccccc1Cl 7.08 µM [activator, partial curve]
COc1ccc(NC(=S)Nc2cc(C(F)(F)F)ccc2F)cc1 14.1 µM [activator, partial curve]
CCN=C1S/C(=C\c2ccc(O)c(OCC)c2)C(=O)N1CC 31.6 µM [activator, single point]
COCC(C)n1c(COc2ccccc2F)nnc1SCC(=O)c1c(N)n(C)c(=O)n(C)c1=O (stereo unspecified) 3.16 µM [activator, single point]
O=C(COC(=O)c1ccc(Cl)cc1[N+](=O)[O-])NCc1ccco1 35.5 µM [activator, single point]
COc1ccc(OC2CCN(S(=O)(=O)c3cccc(F)c3)CC2)cc1 10 µM [activator, partial curve, poor fit] and 17.8 µM [activator, single point]
CCOc1ccc(-c2cccc(NC(=O)COc3ccccc3)c2)nn1 5.62 µM [activator, full curve]
Cc1cccc(-n2ncc3c(N4CCOCC4)ncnc32)c1 12.6 µM [activator, partial curve]
COc1ccc(C(=S)N2CCCCCC2)cc1 35.5 µM [activator, single point]
Cc1ccc(NC(=S)NCc2ccc(Cl)cc2)c(OC(F)F)c1 15.8 µM [activator, single point]
COc1ccc2nc(NC(=O)CSc3nc(C)cc(C)n3)sc2c1 17.8 µM [activator, single point]
Cc1ccc(S(=O)Cc2ccc(C(=O)NCc3ccc(OC(C)C)cc3)o2)cc1 (stereo unspecified) 0.355 µM [activator, full curve, poor fit]
COc1cc(OC)c(NC(=O)c2sc3nc4n(c(=O)c3c2C)CCCC4)cc1Cl 11.2 µM [activator, partial curve]
CCc1cccc(NC(=O)CCCN2C(=O)C(c3ccccc3)Oc3cccnc32)c1 (stereo unspecified) 25.1 µM [activator, single point]
OCCCn1c(CCCNc2nc(-c3cccc(Br)c3)cs2)nc2cc(Cl)c(N3CCCCC3)cc21 35.5 µM [activator, partial curve]
C=Cc1ccc(Cn2c(C)c(C(=O)NCc3ccc4c(c3)OCCO4)sc2=O)cc1 7.08 µM [activator, single point]
CCCC(=O)Nc1nc(-c2ccc(Cl)s2)cs1 8.91 µM [activator, partial curve]
COc1ccc(NC(=O)CN(C)C(=O)C(C)Oc2ccc(Br)cc2)cc1 (stereo unspecified) 10 µM [activator, partial curve]
Cc1cc(F)ccc1Nc1nc2ccc(Cl)cc2n2cnnc12 1.12 µM [activator, full curve, poor fit]
CN(C(=O)c1ccco1)c1nnc(C23CC4CC(CC(C4)C2)C3)s1 35.5 µM [activator, single point]
O=C(Cc1ccc(Cl)cc1)NCCc1csc2nc(-c3ccccc3F)nn12 35.5 µM [activator, single point]
CN(C)c1cc[n+](CC(=O)Nc2ccc(Oc3ccccc3)cc2)cc1 11.2 µM [activator, partial curve]
CCC1Sc2ccccc2N(CC(=O)NCCC2=CCCCC2)C1=O (stereo unspecified) 14.1 µM [activator, single point]
C=CCOc1c(Br)cc(CNc2ccc(NC(=O)CCC)cc2)cc1OCC 7.08 µM [activator, partial curve]
CC1C(=O)OC(c2ccc(Br)cc2)C(C)(C)C1=O (stereo unspecified) 11.2 µM [activator, partial curve]
NC(=S)N=Nc1c(O)n(CCCl)c2ccc(Cl)cc12 6.31 µM [activator, partial curve]
CC1CCCN(C(=O)COc2ccc(Nc3ccccc3)cc2)C1 (stereo unspecified) 28.2 µM [activator, single point]
COc1ccc(C(=O)c2cc(OC)c(OC)c(OC)c2)cc1OC 35.5 µM [activator, single point]
N#C/C(=C\c1cccc(NC(=O)c2ccccc2Cl)c1)C(=O)NCCc1ccccc1 22.4 µM [activator, single point]
CC1(C)CC(=O)C(C(c2ccc3c(c2)OCO3)C2C(=O)CC(C)(C)CC2=O)C(=O)C1 3.16 µM [activator, partial curve]
CNC(=O)c1cc2c(cn1)[nH]c1ccccc12 15.8 µM [activator, partial curve]
CCCNC(=O)c1cc(Cl)c(NC(=O)C2=CSCCO2)cc1OC 2.82 µM [activator, full curve, poor fit]
Cc1ccnc(SCC(=O)Nc2sccc2C#N)n1 11.2 µM [activator, partial curve]
Cc1ccc(CNc2oc(-c3cccs3)nc2C#N)cc1 22.4 µM [activator, single point]
O=C(OCCc1cc2ccccc2c(=O)o1)c1ccccc1C(F)(F)F 20 µM [activator, single point]
O=S(=O)(Nc1ccc2ccccc2c1)c1ccccc1 14.1 µM [activator, partial curve]
Cc1ccc(C(=O)NCc2ccc(Cl)c(Cl)c2)o1 12.6 µM [activator, single point]
CC(=O)c1cccc(NC(=O)c2sc(Cl)nc2C)c1 12.6 µM [activator, partial curve]
Cc1c(NC(=O)c2cccs2)cccc1-c1nc2cc(Cl)ccc2o1 0.355 µM [activator, partial curve]
CC(=O)NC(c1cccc(F)c1)c1nc(-c2ccccc2C)cs1 (stereo unspecified) 25.1 µM [activator, partial curve]
N#CCSc1ccccc1NC(=O)CN1C(=O)C(=O)N(Cc2ccccc2)C1=O 3.55 µM [activator, partial curve]
CCOc1ccc(NC(=O)c2nc(S(=O)(=O)Cc3ccccc3F)ncc2Cl)cc1 0.794 µM [activator, full curve]

Potency, active:
O=C(Nc1ccccn1)c1ccc(Br)s1 6.31 µM
COc1ccc(Cc2c(-c3ccccc3)nc3c4ccccc4ccn23)c(C)c1 11.2 µM
CCOc1ccccc1NC(=O)CSc1nc2ccccc2nc1Cc1ccc(C)cc1 25.1 µM
O=C(CC1C(=O)OCCN1Cc1ccccc1)Nc1cccc(Cl)c1 (stereo unspecified) 17.8 µM
CC(C)CCNc1nc(Nc2ccccc2)c2cnn(C)c2n1 17.8 µM
CCc1ccccc1S(=O)(=O)Cc1ccc(C(=O)NCCc2ccc(Cl)cc2)o1 35.5 µM
CSc1nc2ccc(NS(=O)(=O)c3cccc(Cl)c3Cl)cc2s1 31.6 µM
CCCNC(=O)c1cc2c3ccccc3n(C)c2s1 14.1 µM
CCCCCCCSc1nsc(N)n1 12.6 µM
O=CNc1ccc2c(c1)Cc1cc([N+](=O)[O-])ccc1-2 22.4 µM
Clc1ccccc1-c1nn2c(-c3ccccn3)nnc2s1 12.6 µM

Growth rescue (activation), inconclusive:
CN(C)/C=C/C(=O)c1ccc(Oc2ncccn2)cc1 -82.3% [activator]
C=CS(=O)c1sc(Cl)c(N2CCOCC2)c1[N+](=O)[O-] (stereo unspecified) -92.9% [activator]
COc1ccc(S(=O)(=O)n2nc(-c3ccco3)nc2NCc2ccc(C(C)C)cc2)cc1 32.2% [activator] [at 9.22 µM]
O=C(COC(=O)c1ccc([N+](=O)[O-])o1)Nc1ccc(Br)cc1F -67.9% [activator]

Growth rescue (activation), inactive:
CCCCn1c(=O)c2oc3ccccc3c2n(CC(=O)Nc2cc(C)ccc2C)c1=O 9.76%
Cc1ccc2c(Sc3ccccc3)c(C(=O)NCc3ccccc3F)[nH]c2c1 10.3%
CC(C)CN1CCC(CN(C)Cc2nc(-c3cnccn3)no2)CC1 5.54%
CC(C)CC(=O)Nc1ccc(N2CCN(C(=O)c3cccs3)CC2)cc1 -21.7%
CCNC(=O)/C=C1\NC(C)(C)Cc2c1ccc1ccccc21 -13.8%
CC(=O)Nc1ccc(-c2csc(NC(=O)c3ccc(C)o3)n2)cc1 24.3%
Cc1cccc(C(=O)O/N=C(\N)Cc2ccc([N+](=O)[O-])cc2)c1 -1.88%
COC(=O)CS(=O)(=O)c1cccc2cccnc12 0%
O=C1C=C(c2cccc(Br)c2)C[C@@H](c2ccc(Cl)cc2)C1 0%
Cc1ccc(CNc2cc(C)nc3nc(-c4ccc(C)cc4)nn23)cc1 24.3%
Cc1cccc(N(Cc2cc(=O)[nH]c3ccccc23)C(=O)CCl)c1 -10.9%
O=C(NCCCN1CCN(c2ccccc2F)CC1)c1ccc2nc(CCc3ccccc3)oc2c1 -21.6%
CCC12CN(C(=O)c3ccc([N+](=O)[O-])cc3)CC(CC)(CN(C(=O)c3ccc([N+](=O)[O-])cc3)C1)C2=O 0.194%
